The antibiotic and cytotoxicity screens of Wong et al. (2023)
Some of the results follow.

Columns and labels:
HSkMC = human skeletal muscle cells; test: cytotoxicity call (relative viability < 0.9); conditions: 10 µM
HepG2 = test: cytotoxicity call (relative viability < 0.9); conditions: 10 µM
S. aureus RN4220 = test: growth inhibition call (relative growth <= 0.2); conditions: 50 µM

CN1CCN(C(=O)C[C@@H]2CC[C@@H]3[C@H](COC[C@@H](O)CN3S(=O)(=O)c3cccc(F)c3)O2)CC1
inactive: cytotoxicity call (HSkMC) | cytotoxicity call (HepG2) | growth inhibition call (S. aureus RN4220)

COCCNC(=O)C[C@H]1C[C@H]2c3cc(NC(=O)Nc4ccc(C(F)(F)F)cc4)ccc3O[C@H]2[C@H](CO)O1
inactive: cytotoxicity call (HSkMC) | cytotoxicity call (HepG2) | growth inhibition call (S. aureus RN4220)

CC(C)NC(=O)N(C)C[C@@H]1Oc2ccc(NS(=O)(=O)c3ccc(F)cc3)cc2C(=O)N([C@@H](C)CO)C[C@@H]1C
inactive: cytotoxicity call (HSkMC) | cytotoxicity call (HepG2) | growth inhibition call (S. aureus RN4220)

COc1ccc(CN(C)C[C@@H]2OCCCC[C@H](C)Oc3ccc(NS(=O)(=O)c4ccc(OC)cc4)cc3C(=O)N([C@@H](C)CO)C[C@H]2C)cc1
inactive: cytotoxicity call (HSkMC) | cytotoxicity call (HepG2) | growth inhibition call (S. aureus RN4220)

C[C@@H]1CN([C@H](C)CO)C(=O)Cc2cc(NC(=O)C3CC3)ccc2O[C@H]1CN(C)S(=O)(=O)c1ccccc1
inactive: cytotoxicity call (HSkMC) | cytotoxicity call (HepG2) | growth inhibition call (S. aureus RN4220)

O=C(C[C@H]1CC=CCC[C@H](Cc2ccc(F)cc2)C(=O)OC[C@@H](Cc2ccccc2)NC1=O)NCCO
inactive: cytotoxicity call (HSkMC) | cytotoxicity call (HepG2) | growth inhibition call (S. aureus RN4220)

C[C@@H]1CN([C@H](C)CO)C(=O)c2cccc(NS(=O)(=O)c3cccs3)c2O[C@H]1CN(C)Cc1ccc(Oc2ccccc2)cc1
inactive: cytotoxicity call (HSkMC) | cytotoxicity call (HepG2) | growth inhibition call (S. aureus RN4220)

COc1ccc(CN(C)C[C@@H]2OCCCC[C@H](C)Oc3ccc(NC(=O)NC(C)C)cc3C(=O)N([C@@H](C)CO)C[C@@H]2C)cc1
inactive: cytotoxicity call (HSkMC) | cytotoxicity call (HepG2) | growth inhibition call (S. aureus RN4220)
